Source: patent US4451284A, “Derivatives of 2-nitro-4- or -5-pyridyloxyphenylphosphonic acid, the preparation thereof, the use thereof as herbicides and/or plant growth regulators” (Ciba-Geigy Corporation, priority 1981, dated 1984)

System: soya bean plants
Test: Regulation of the growth of soya bean plants
Conditions: 0.1, 0.5 and 1.5 kg a.i./ha, 25% emulsifiable concentrate, about 5 weeks after application
Excerpt: (a) Soya beans of the "Hark" variety are sown in plastic containers in a mixture of earth/peat/sand (6:3:1). The containers are put into a climatic chamber and the plants develop to the 5-6 trefoil leaf stage after about 5 weeks by optimum control of temperature, light, fertilisation and watering. The plants are then sprayed until wet at rates of application of 0.1, 0.5 and 1.5 kg a.i./ha with the aqueous spray mixture prepared from a compound of formula I formulated as a 25% emulsifiable concentrate. Evaluation is made about 5 weeks after application by comparing the average growth in height and the yield of harvested pods with those of untreated controls (=100%).
(b) Under the same test conditions as in (a), but using rates of application of 0.08 to 4 a.i./ha, the following results are obtained e.g. with 2-nitro-5-(5'-trifluoromethyl-2'-pyridyloxy)phenylphosphonic acid (compound 3): […]

With COP(=O)(OC)c1cc(Oc2ccc(C(F)(F)F)cn2)ccc1[N+](=O)[O-] [Compound 1, Dimethyl 2-nitro-5-(5'-trifluoromethyl-2'-pyridyloxy)phenylphosphonate] as the molecule, how does the “growth regulation effectiveness in words (growth in height and yield of harvested pods)” value read?
Its value is “very effective”.
